# Measured values taken from PubChem BioAssay AID504832 (National Center for Advancing Translational Sciences (NCATS), 2011).
# The whole screen tested about 310,000 compounds, of which about 18,000 (5.8%) were called active. Inconclusive results, whose numbers are uncertain, are shown with a selection of clear calls. Calls come from the whole dose curve; as a rule, active = well fitted inhibition curve with a large enough effect; inconclusive = small, poorly fitted or top-dose-only effect, or another doubt; inactive = no such curve, though single readings can be large or run the other way. No potency is given beside an inconclusive call; the fits are too rough.
# Experiment: Primary qHTS for delayed death inhibitors of the malarial parasite plastid, 48 hour incubation
# Conditions: P. falciparum luciferase growth in erythrocytes; series mostly up to 28.7 µM; activity change, negative = inhibition: at the top concentration
# Summary of the method: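 Here the parasites carry a stable luciferase gene and grow inside erythrocytes in Albumax-based RPMI medium with compound for one erythrocytic cycle. Activity is scored as loss of luminescent signal.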
# % is set by controls: 0 for no effect and ±100 for the full control effect; potency is the fitted concentration of half-maximal effect; tags give direction and shape of the fitted curve.
Structure (SMILES),Potency,"activity change, negative = inhibition"
CCOc1ccc(NC(=S)NC23CC4CC(CC(C4)C2)C3)cc1,active: 10.4 µM,
COc1ccc(C)cc1NC(=O)c1cc2ccccc2o1,"inconclusive [inhibitor, single point]",
O=C(c1cc(=O)[nH]c2ccccc12)N1CCN(c2cccc(C(F)(F)F)c2)CC1,"inconclusive [inhibitor, single point]",
CCCc1cc(=O)n2[nH]c(NCc3ccc(OC)cc3)nc2n1,"inconclusive [inhibitor, full curve, poor fit]",
CN1CCN(NC(=O)/C=C/c2cccc([N+](=O)[O-])c2)CC1,,inactive: 12.4%
c1cnc(Sc2ccc3nnnn3n2)nc1,,inactive: -2.79%
Cc1ccccc1C(=O)N=c1ccn(-c2nc3ccccc3nc2NS(=O)(=O)c2ccccc2)cc1,"inconclusive [inhibitor, full curve]",
O=C1[C@H]2[C@@H](c3ccc(Cl)cc3)N3C(=O)N(c4cccc(F)c4)C(=O)[C@@]3(Cc3ccc(Cl)cc3)[C@H]2C(=O)N1C1CCCCC1,"inconclusive [inhibitor, partial curve]",
CCC(C)C(=O)N1c2ccccc2C(=C2SC(C(=O)OC)=C(C(=O)OC)S2)C(=S)C1(C)C (configuration not stated),active: 9.28 µM,
COc1cc(NC(=O)Nc2cccc([N+](=O)[O-])c2)cc(OC)c1,"inconclusive [inhibitor, single point]",
COc1cccc(-c2c(C#N)c(SC)nc3cc(C)nn23)c1,,inactive: -7.78%
CCCCn1c(N)c(N(CCOC)C(=O)CSCc2ccc(Cl)c(Cl)c2)c(=O)[nH]c1=O,"inconclusive [inhibitor, partial curve, poor fit]",
Cc1cc(C)nc(/N=C2\NC(=O)CC(C(=O)O)N2c2ccc(C)c(C)c2)n1 (configuration not stated),,inactive: -9.43%
Cc1cc(NC(=O)NCC(F)(F)F)no1,,inactive: 10.9%
Cc1ccc(CSCC(=O)N(C)CC(=O)Nc2cccc(F)c2)cc1,"inconclusive [inhibitor, single point]",
Cc1ccc(/C=C/C(=O)c2ccccc(=O)c2O)c(C)c1,"inconclusive [inhibitor, partial curve]",
COc1ccc(OC)c(N(CC(=O)NCCc2ccc(OC)c(OC)c2)S(=O)(=O)c2ccccc2)c1,"inconclusive [inhibitor, partial curve]",
CC(NCC1(N2CCOCC2)CCCCC1)C(=O)Nc1ccc(Cl)cc1Cl (configuration not stated),"inconclusive [inhibitor, partial curve, poor fit]",
C=C(C)C(=O)Nc1cccc(C2=NOC3(C2)C[C@H](C(N)=O)N(C(=O)C(c2ccccc2)c2ccccc2)C3)c1 (some centres not stated),"inconclusive [inhibitor, single point]",
O=C(NCc1nnnn1-c1ccc(F)c(F)c1)C(=O)c1c[nH]c2ccccc12,,inactive: -13.6%
Cc1cccc(NC(=S)N(CCCN2CCOCC2)Cc2ccco2)c1,"inconclusive [inhibitor, single point]",
CN(C)CCCNC(=O)c1cc2sc3ccccc3c2s1,"inconclusive [inhibitor, partial curve, poor fit]",
O=S(=O)(/C=C/c1ccccc1)N1CCN(c2nc(-c3ccccc3)nc3ccccc23)CC1,"inconclusive [inhibitor, single point]",

Structure (SMILES),Potency,"activity change, negative = inhibition"
CC(OC(=O)c1cccc(-n2cnnn2)c1)C(=O)NC1(C#N)CCCCC1 (configuration not stated),"inconclusive [inhibitor, partial curve, poor fit]",
C#CCOCCOCCOCCNc1nc(N2CCN(C(=O)[C@H]([C@@H](C)CC)n3cc([C@@H](N)CO)nn3)CC2)nc(N2CCN(C(=O)[C@H](CCCCN)n3cc([C@@H](N)CC(C)C)nn3)CC2)n1,,inactive: 9.27%
CN(C)c1ncc(S(=O)(=O)c2ccc(Cl)cc2)c(-c2ccc(Cl)cc2Cl)n1,"inconclusive [inhibitor, partial curve, poor fit]",
CN(C)CCCOC(=O)COc1ccc(C(C)(C)C)cc1,,inactive: 13.6%
Cc1ccccc1C(=O)N1CCC(n2nccc2NC(=O)CCOc2ccccc2)CC1,"inconclusive [inhibitor, partial curve]",
O=C(CN1CCN(c2ccccc2)CC1)NC(=O)NCc1ccccc1,"inconclusive [inhibitor, single point]",
CCOC(=O)c1ccc(NC(=S)NCCc2ccccc2)cc1,"inconclusive [inhibitor, partial curve]",
COc1cccc(NCc2nnc(SCC(=O)NC3CCS(=O)(=O)C3)n2C2CCCCC2)c1 (configuration not stated),"inconclusive [inhibitor, partial curve, poor fit]",
Cc1cccc(C)c1OCc1cc(C(=O)NC2CCC2)no1,"inconclusive [inhibitor, single point]",
CCOC(=O)c1oc2ccc(Cl)cc2c1NC(C)=O,,inactive: 46.9%
CC/C(C)=N/N1C(=O)c2ccccc2NC1(C)CC (configuration not stated),,inactive: 5.33%
O=C(Cn1cnc2ccccc2c1=O)Nc1ccc2c(c1)CCC2,,inactive: 8.74%
CC1(C)CC(=O)C2=C(C1)N(Cc1ccccc1)C(=O)C2(NC(=O)C(C)(C)C)C(F)(F)F (configuration not stated),,inactive: -1.28%
COc1ccc(CNc2ncnc3sccc23)cc1OC,,inactive: -19.9%
COc1ccc2[nH]c(C)c(CCNC(=S)Nc3cc(C)cc(C)c3)c2c1,"inconclusive [inhibitor, partial curve, poor fit]",
CN(C)S(=O)(=O)N1CCC(Oc2ccc(C(=O)N3CCCCCCC3)cc2)CC1,"inconclusive [inhibitor, partial curve]",
CN(C(=O)CSc1nc(O)cc(=O)n1-c1ccccc1F)c1ccccc1,"inconclusive [inhibitor, partial curve]",
Cc1csc(NC(=O)CSc2nnc(Cc3cccn3C)n2CCc2ccccc2)n1,"inconclusive [inhibitor, single point]",
CN1CCN(CC(=O)Nc2nnc(-c3cccs3)s2)CC1,,inactive: 16.6%
CCCN1C(=O)C2(/C(=C(\O)c3ccc4c(c3)OCCO4)C(=O)C(=O)N2CCCOC)c2ccccc21 (configuration not stated),"inconclusive [inhibitor, partial curve, poor fit]",
Cc1ccc(C(O)c2nc3ccccc3n2C(C)C)cc1 (configuration not stated),"inconclusive [inhibitor, single point]",
CCn1c(O)c(C(c2ccccn2)c2c(O)n(CC)c(=S)[nH]c2=O)c(=O)[nH]c1=S,,inactive: -9.35%
COc1cc2c(cc1OC)CN(C(=O)c1cc(C3CC3)nn1-c1ccccc1)CC2,"inconclusive [inhibitor, single point]",

Structure (SMILES),Potency,"activity change, negative = inhibition"
CCOc1ccc(OCC)c(NC(=O)c2ccc(CNc3c(N4CCOCC4)c(=O)c3=O)cc2)c1,"inconclusive [inhibitor, single point]",
CCOC(=O)C1=C(C)N(c2ccc(C)cc2)C(=O)/C1=C\c1ccc(O)c(OC)c1,"inconclusive [inhibitor, single point]",
O=C(NCc1ccncc1)c1cc(S(=O)(=O)N2CCOCC2)c(Cl)cc1Cl,"inconclusive [inhibitor, full curve, poor fit]",
Cn1c(SCC(=O)Nc2ccccc2O)nnc1-c1ccco1,,inactive: -2.9%
CN(C)C=Nc1ccc2nc3c(cc2c1)[nH]c1ccccc13,"inconclusive [inhibitor, partial curve, poor fit]",
CCc1ccc2oc(-c3ccc(OC)cc3)cc(=Nc3cccc(C(=O)O)c3)c2c1,,inactive: 331%
Cc1ccc(C2c3c(oc4ccc(Cl)cc4c3=O)C(=O)N2CCCN2CCOCC2)o1 (configuration not stated),"inconclusive [inhibitor, single point]",
CCOC(=O)C1=C(c2ccccc2)NC(SCC(=O)NC2CCCCC2)=C(C#N)C1c1ccco1 (configuration not stated),active: 11.7 µM,
Cc1cc(NCCCn2ccnc2)n2nc(-c3ccc(F)cc3)cc2n1,active: 4.15 µM,
COC(=O)c1cn(NC(=O)c2cccnc2)c(=O)c2ccccc12,,inactive: 10.2%
C[N+](C)(C)C/C=C1/COCO1,"inconclusive [inhibitor, full curve, poor fit]",
CC(C)c1ccc(-c2cc(C(=O)N3CCOCC3)c3cc(Br)ccc3n2)cc1,"inconclusive [inhibitor, single point]",
N#Cc1cnn(-c2ccccc2)c1NC(=O)c1ccccc1F,"inconclusive [inhibitor, single point]",
COC(=O)C1=C(c2cccc(OCc3ccccc3)c2)C[C@@H]2CC[C@H]1N2C(=O)NCc1ccc(OC)c(OC)c1,"inconclusive [inhibitor, single point]",
Cc1cc(/C=C2\SC(=O)NC2=O)c(C)n1-c1ccc(N2CCOCC2)cc1,active: 10.4 µM,
C=CC[N+]1(C)CCC23c4c5ccc(O)c4O[C@H]2C(=O)CC[C@@]3(O)C1C5 (some centres not stated),"inconclusive [inhibitor, single point]",
O=[N+]([O-])c1ccc(C2CC(c3ccccc3)=Nc3ccccc3S2)cc1 (configuration not stated),"inconclusive [inhibitor, single point]",
CCC(C)N(C(=O)CSc1nc(C)nc2ccccc12)C1CCS(=O)(=O)C1 (configuration not stated),"inconclusive [inhibitor, partial curve]",
CC(NC(=O)CSc1nc2ccccc2n1C)c1ccccc1 (configuration not stated),,inactive: 2.66%
COc1ccc(NC(=O)C2CCCN2c2ccc(OC)c(OC)c2)cc1OC (configuration not stated),active: 10.4 µM,
Cc1ccc(Cn2cnc3c(cnn3C(C)(C)C)c2=O)cc1,,inactive: 55.7%
